Data as given in the BET-seq Pho4 binding data (Le et al. 2018).
The list shows a part of the results. The energies were worked out here from pooled read counts, against the library average; single values are noisy.

Biological target: T1, Pho4 (S. cerevisiae) (UniProt P07270)
T1 sequence: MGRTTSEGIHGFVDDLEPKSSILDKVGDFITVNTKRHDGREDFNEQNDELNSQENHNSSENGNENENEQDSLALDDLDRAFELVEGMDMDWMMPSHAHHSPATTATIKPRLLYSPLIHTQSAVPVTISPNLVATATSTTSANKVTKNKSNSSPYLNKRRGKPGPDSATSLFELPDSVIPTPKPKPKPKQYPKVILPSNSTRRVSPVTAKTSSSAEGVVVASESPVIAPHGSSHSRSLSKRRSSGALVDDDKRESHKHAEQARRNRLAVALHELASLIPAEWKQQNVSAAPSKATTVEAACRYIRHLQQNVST
Experiment: relative binding free energy (BET-seq); higher = weaker binding
Details: reference: library average

Sequence | relative binding free energy [kcal/mol]
CTGATCACGTGGGAAG | 0.17
TGTATCACGTGAACGG | 0.38
AGGGGCACGTGTATTT | -0.02
CTTGGCACGTGGTTCT | -0.08
TTAGTCACGTGGTGTA | 0.1
AGCATCACGTGATGGA | 0.39
GGAGCCACGTGGGTAG | -0.28
GGAGTCACGTGATGCA | 0.32
GGGCTCACGTGATGGG | 0.4
ACTGTCACGTGAGTGC | 0.25
GTGGGCACGTGCACTG | -0.16
ATTGGCACGTGTTGCA | -0.04
GTGATCACGTGTACGT | 0.07
TTATTCACGTGGGAAC | 0.28
TTGTTCACGTGCGGAG | 0.26
AACGACACGTGGGGTG | -0.22
GAGATCACGTGTGGGC | 0.37
TTGGACACGTGCTGGC | 0.13
GTCTTCACGTGGAGTA | 0.38
TCTCGCACGTGTTTTG | 0
TTGAGCACGTGGCGTT | -0.12
TTAGGCACGTGATAGT | -0.1
CAGGGCACGTGTGTGA | -0.18
TTTAGCACGTGGCAGG | -0.12
TTGGTCACGTGGTACG | 0
TTATTCACGTGTGGCA | 0.25

Sequence | relative binding free energy [kcal/mol]
GTTGCCACGTGATGAG | 0.17
TAGTTCACGTGAGTTC | 0.29
TGTTTCACGTGGGGTT | 0.15
TTTACCACGTGAATTT | 0.42
ATTTGCACGTGGGCCT | -0.06
GGGCACACGTGGGAGG | -0.06
GGGGGCACGTGGATGC | -0.03
ATGTGCACGTGGGTGC | -0.08
TTATACACGTGGGATA | 0.05
GTTGCCACGTGTGGTG | 0.06
TATGTCACGTGTCGAG | -0.02
TTTTACACGTGTACGG | 0.07
TTGGTCACGTGAATTT | 0.31
GTCGGCACGTGGATAT | -0.04
TAAATCACGTGGTGCT | 0
AGGGCCACGTGAGGGT | 0.05
CGATTCACGTGGGAGT | 0.2
ATTTGCACGTGTCGGC | 0.09
CTCGGCACGTGTGGGA | -0.07
AAGGGCACGTGGGCTA | -0.18
GAAATCACGTGGTTTT | 0.26
GTGTCCACGTGGTCTG | -0.01
AATTTCACGTGGTAGT | 0.14
TTGAACACGTGTTTTT | 0.08
GGACTCACGTGGTAGT | 0.11
TAATTCACGTGCAGGT | 0.28

Sequence | relative binding free energy [kcal/mol]
AGGGGCACGTGCGGAT | -0.24
ATTATCACGTGTTGTG | 0.16
GGTGTCACGTGGCTAA | -0.03
TATGGCACGTGAGCGT | -0.05
TGAATCACGTGGGGGC | 0.08
GTATGCACGTGTCGTT | 0.16
TCAGTCACGTGGCGAG | 0.13
GGTTACACGTGAGGGC | 0.26
TATCGCACGTGCTTGT | 0.03
TAATCCACGTGGGATT | 0.01
ATTTTCACGTGAAGTT | 0.39
TTAGGCACGTGAGATT | 0.29
GGGTCCACGTGGTATG | 0.02
TAGGTCACGTGCGGGG | 0
GTGGACACGTGTTCAG | 0.09
GGGAGCACGTGGTATG | -0.06
TATTTCACGTGTGTAT | 0.22
ACAGTCACGTGGTTGG | -0.06
TAGGTCACGTGGGGGT | 0.1
TCTCGCACGTGTTGGT | -0.03
AGACGCACGTGAGTGG | -0.07
AGAGTCACGTGGGCAA | 0.01
GTGGTCACGTGATCGG | 0.26
TTCTTCACGTGCGATT | 0.46
AAGGGCACGTGGATAG | -0.17
ATGTACACGTGGGAGT | -0.14

Sequence | relative binding free energy [kcal/mol]
TTGGTCACGTGGGCGG | -0.08
AGCGACACGTGGTGGA | 0.1
GGAAACACGTGCTTGT | 0.09
GTTTACACGTGCGATT | 0.05
AATATCACGTGGTGGC | 0.03
GTATGCACGTGGGGGT | -0.11
GCGTTCACGTGTGGCA | 0.35
ATGAGCACGTGTTTTG | 0.04
AGGGACACGTGGTCTT | 0.05
ATTTACACGTGAATAT | 0.16
CGGGTCACGTGGTGAG | 0.01
GAGGTCACGTGGCCTG | 0.11
TTAGCCACGTGTGGGG | 0
AATTTCACGTGATATA | 0.44
TGATACACGTGTGTCG | -0.03
CGTGACACGTGTTGCG | 0.04
ATCTTCACGTGTGTGG | 0.15
TAAGGCACGTGTTTTA | 0.01
TTATGCACGTGAGGCG | 0.13
TTCATCACGTGGCGGT | 0.14
TGGCGCACGTGTCTTG | -0.03
GTTGTCACGTGTGCTC | 0.2
ACAATCACGTGGTGAT | 0.15
AGGAGCACGTGGATGA | -0.01
GTTAGCACGTGGCGAG | 0.11
GTCTGCACGTGAATGG | 0.1

Sequence | relative binding free energy [kcal/mol]
GTGCTCACGTGGGTTA | 0.18
GTGCGCACGTGAAGTA | 0.2
TGGTGCACGTGCGGCT | -0.06
GTCGGCACGTGTTGGC | 0.05
AGTTACACGTGTTGCT | 0.17
TAGGACACGTGTTAAG | 0.06
GGGAACACGTGTAGTT | 0.23
ATTCTCACGTGGTAAT | 0.16
TGGGACACGTGAGGTC | 0.15
AGTGGCACGTGCTCTG | -0.26
TGAAGCACGTGAAGTG | 0.25
TTGGCCACGTGTTAGG | 0.03
TGCGGCACGTGGTCGG | -0.21
GGTACCACGTGTAGTT | 0.24
AATTTCACGTGGATGT | 0.22
TTATACACGTGAGCGG | 0.22
GGTAACACGTGTGGGC | 0.12
ATTGTCACGTGTTTGA | 0.23
TCTATCACGTGTTAGG | -0.01
TGACGCACGTGTAGTG | -0.22
AGGGGCACGTGGTCCG | -0.24
CGAGACACGTGGTAGG | -0.1
GCGTGCACGTGCGTTG | -0.17
GCTTTCACGTGGTTGG | 0.38
GGGAACACGTGGGAGG | -0.15
GTGGTCACGTGAAATT | 0.43

Sequence | relative binding free energy [kcal/mol]
GGTGGCACGTGGGCTA | -0.14
CAGGGCACGTGAAGGT | -0.03
GTGTTCACGTGTGATA | 0.28
TTGGTCACGTGTGATA | 0.15
GAGTTCACGTGGGAGT | 0.32
TCTGTCACGTGGTTAA | 0.04
GCAATCACGTGAGGGG | 0.31
AGTGGCACGTGGGTTC | -0.22
CTTACCACGTGTGGGT | 0.04
GGCGGCACGTGCATGG | -0.16
GGACTCACGTGGGGAG | 0.23
GTTTCCACGTGGGGGA | -0.07
GTTACCACGTGGAGGG | -0.13
GAGGGCACGTGGCTTG | -0.12
TAATTCACGTGCTTTT | 0.13
GTGTTCACGTGCTCGT | 0.14
TGCAGCACGTGGGGGC | -0.15
AATAGCACGTGGATGT | -0.07
TTTTACACGTGATGGG | 0.31
CGTTTCACGTGGTTTA | 0.18
ATTTTCACGTGCTAGT | 0.07
TTGCGCACGTGTTGAG | -0.11
ATGTTCACGTGGTGAT | 0.17
TGTGACACGTGCGTGA | -0.13
AAAGTCACGTGGCGTA | 0.03
TGGGACACGTGGAGTG | 0.02

Sequence | relative binding free energy [kcal/mol]
GTCGGCACGTGGTTCA | -0.01
CGGGTCACGTGCTTGG | 0.21
ATGGCCACGTGGTGGC | -0.1
TCAGGCACGTGTTTTA | -0.11
TAGATCACGTGATTTA | 0.22
TGCAGCACGTGGCGAG | -0.05
GTAAACACGTGTTTGA | -0.06
GGGAGCACGTGTCGTG | 0
GTTTTCACGTGGTAAA | 0.33
ATGGGCACGTGGGAGG | -0.21
CAGTACACGTGTGTGG | 0.04
GACGGCACGTGAAGGG | 0.37
AGCTGCACGTGTGAGT | 0.05
GGTTGCACGTGGCGTT | -0.06
ATAGGCACGTGTTGCT | -0.18
AGCGGCACGTGGTGTT | -0.13
GTGATCACGTGTCATT | 0.22
AAAGTCACGTGTTGGA | 0.17
AAGTGCACGTGCGCTG | 0
GTTGTCACGTGCTTAG | 0.12
GGGCGCACGTGTGCGT | -0.07
GGGTGCACGTGGGTAA | -0.06
GGACTCACGTGATTGG | 0.41
AGAGGCACGTGGGTAG | -0.24
TTAATCACGTGTGCGT | -0.02
GATAACACGTGTGATG | 0.1

Sequence | relative binding free energy [kcal/mol]
TGGGCCACGTGAGTGG | 0.02
AGGTTCACGTGCAAGT | 0.18
ACTGGCACGTGTGGCT | -0.06
AATTACACGTGTATTG | 0.08
TGTGGCACGTGTGGCT | 0.04
TAGTTCACGTGTACTA | 0.32
ATCGTCACGTGGCTGG | 0.04
TAAGACACGTGGTGGG | 0.02
GAGGCCACGTGTTTGG | 0.02
GTATGCACGTGTGCTT | 0.03
CGGAGCACGTGGTAGG | -0.19
ACTAGCACGTGTTGTG | -0.11
TTGGACACGTGACTGG | 0.18
GTATGCACGTGGGGTA | -0.1
TTTAGCACGTGATGGG | 0
GGCAGCACGTGGGGAA | -0.05
ATTGTCACGTGACTAG | 0.23
AGAGTCACGTGCAGTT | 0.13
ATCGGCACGTGCGGAG | 0.01
TATGGCACGTGTGAGC | 0.02
TATAACACGTGTTAAG | -0.01
AATTTCACGTGCGAGG | 0.35
GATAACACGTGTGGTG | 0.14
TCTTACACGTGCGGTT | 0.11
TCGGACACGTGCTGTT | 0.16
GCGGTCACGTGGATCT | 0.43

Sequence | relative binding free energy [kcal/mol]
GTTTTCACGTGGCAAG | 0.32
TGTTACACGTGTTATA | 0.07
TGCGGCACGTGGTATA | -0.07
GGATTCACGTGTTACT | 0.45
GTTTGCACGTGTAGTC | 0.17
GGGCGCACGTGACGTG | 0.02
TGTTGCACGTGTATTA | 0.1
TGGCCCACGTGGGGAG | -0.19
TTGACCACGTGTTAGG | 0.03
TGGTGCACGTGTTATC | -0.1
AATATCACGTGTTGGG | -0.04
ACGAGCACGTGTGGTG | -0.07
AACGTCACGTGTTGAA | 0.27
TAAAGCACGTGCAGGG | -0.2
GTGGGCACGTGAAAGT | 0.13
ATTGGCACGTGGGTCT | -0.23
TCGGGCACGTGGTAAA | -0.04
ATCGACACGTGGGGTA | -0.08
GGTAACACGTGTGCTG | 0
GTGGTCACGTGTTCTA | 0.04
TCCGTCACGTGTGGGG | 0.26
TGTCACACGTGTTTAT | 0.05
